Results published in PubChem BioAssay AID624417 (National Center for Advancing Translational Sciences (NCATS), 2012).
About 6,400 (1.6%) of roughly 410,000 compounds were called active. The inconclusive results got no clear call from the source; some entries with a clear call stand among them for comparison. The call rests on the fitted dose curve; in most records, active means well fitted inhibition curve with a large enough effect; inconclusive means small, poorly fitted or top-dose-only effect; inactive means no such curve, though single readings can be large or run the other way. Potencies beside an inconclusive call are fits to weak or partial responses and may not hold up.

Biological target: Glucagon-like peptide 1 receptor (Homo sapiens) (UniProt P43220)
Chain of UniProt P43220 (P43220 whole entry, looked up): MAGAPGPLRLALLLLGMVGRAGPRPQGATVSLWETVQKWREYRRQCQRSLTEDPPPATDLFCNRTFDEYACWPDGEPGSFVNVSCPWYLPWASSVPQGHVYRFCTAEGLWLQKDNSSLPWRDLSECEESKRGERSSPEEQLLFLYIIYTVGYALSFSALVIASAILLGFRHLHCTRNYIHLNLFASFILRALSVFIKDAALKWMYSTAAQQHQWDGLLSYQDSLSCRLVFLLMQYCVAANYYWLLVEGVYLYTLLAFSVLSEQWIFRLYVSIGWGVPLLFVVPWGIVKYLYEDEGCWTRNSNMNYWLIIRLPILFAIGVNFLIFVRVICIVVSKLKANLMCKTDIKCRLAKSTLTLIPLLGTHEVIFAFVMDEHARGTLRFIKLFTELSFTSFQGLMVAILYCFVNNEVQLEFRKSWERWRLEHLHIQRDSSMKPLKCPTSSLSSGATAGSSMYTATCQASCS
Experiment: qHTS of GLP-1 Receptor Inverse Agonists (Inhibition Mode); further: nearly all actives have a fitted effect of over 55% in size
Conditions: HEK293 GLP-1R CRE-luciferase, luminescence, 24 h, GLP-1R form is constitutively active; series mostly up to 38.3 µM
How it was run: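 Inverse agonists were sought by their lowering of basal cAMP reporter luciferase output in HEK293 cells stably carrying constitutively active human GLP-1R, after 24 h compound treatment.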
Potency means the concentration at half of the fitted maximal effect; tags describe the fitted curve by direction and shape.

Potency, inactive:
COC(=O)c1ccc(O)cc1
O=c1cc(-c2ccc(O)c(O)c2)oc2cc(O[C@@H]3O[C@H](CO)[C@@H](O)[C@H](O)[C@H]3O)cc(O)c12
Nc1nnc(-c2ccc(Cl)cc2Cl)s1
CCc1nn2c(=O)c(S(=O)(=O)Nc3cccc(F)c3)c(C)nc2s1
COc1cc2c(c(OC)c1)C(c1cc(OC)c(OC)c(OC)c1)CC(=O)N2 (stereo not given)
CCCN1CCN(C(c2cc3cc4c(cc3[nH]c2=O)OCO4)c2nnnn2C(C)(C)C)CC1 (stereo not given)
O=C(c1ccccc1)N1N=C(c2ccccc2)CC1c1ccccc1[N+](=O)[O-] (stereo not given)
Cc1cc2[nH]c(=O)c(=O)[nH]c2cc1S(=O)(=O)Nc1cccc(C(F)(F)F)c1

Potency, inconclusive:
O=C(COc1cccc2ccccc12)N1CCN(c2ccccc2)CC1 11.2 µM [inhibitor, partial curve, poor fit]
Cc1ccc(NNC(=O)c2ccno2)c(C)c1 7.94 µM [inhibitor, partial curve]
O=C(N/N=C(\CC(=O)c1cccs1)C(F)(F)F)c1ccncc1 2.51 µM [inhibitor, full curve]
C=CC(COCc1ccccc1)N(C(=O)OC(C)(C)C)S(=O)(=O)c1ccccc1Br (stereo not given) 12.6 µM [inhibitor, single point]
Cc1nc(Sc2ccccc2)c(C#N)c(C)c1[N+](=O)[O-] 12.6 µM [inhibitor, single point]
COc1ccc(-c2c(C)cc3oc(=O)cc(-c4ccccc4)c3c2C)cc1OC 28.2 µM [inhibitor, single point]
CC(CNC(=O)c1cc(COc2ccc3ncccc3c2)on1)c1ccccc1 (stereo not given) 12.6 µM [inhibitor, partial curve, poor fit]
COc1ccccc1N1CCN(C(=O)c2cc3ccc4ccc(C)[nH]c4c3n2)CC1 28.2 µM [inhibitor, single point]
CC1(C)CC2CC(C)(CN2C(=O)c2cccs2)C1 (stereo not given) 12.6 µM [inhibitor, partial curve, poor fit]
CC1=C(C(=O)Nc2ccccc2)C(c2ccc(C)o2)n2c(s/c(=C\c3ccco3)c2=O)=N1 (stereo not given) 6.31 µM [inhibitor, partial curve, poor fit]
O=C1C(Cc2c[nH]c3ccccc23)NC(=S)N1Cc1ccccc1 (stereo not given) 8.91 µM [inhibitor, partial curve, poor fit]
Cc1ccc(Cl)cc1NS(=O)(=O)c1cc2c3c(c1)CC(=O)N3CCC2 11.2 µM [inhibitor, single point]
CCOC(=O)c1ccc(NC(=O)CN2C(=O)NC3(CCC(C)CC3)C2=O)cc1 (stereo not given) 3.98 µM [inhibitor, partial curve, poor fit]
Cc1c(C(=O)NCc2ccccc2C(F)(F)F)sc(=O)n1Cc1ccc(S(=O)(=O)N(C)C)cc1 20 µM [inhibitor, single point]
O=c1c2ccccc2nc(SCc2ccc(F)cc2Cl)n1CCCN1CCOCC1 12.6 µM [inhibitor, single point]
COC(=O)c1cc(NC(=O)c2cccc([N+](=O)[O-])c2C)ccc1Cl 10 µM [inhibitor, partial curve]
CC(C)(C)c1ccccc1NC(=O)N1CCNC(=O)C1CC(=O)Nc1ccc(F)cc1 (stereo not given) 28.2 µM [inhibitor, single point]
O=C(CN1N=C(c2ccc(Cl)cc2)CCC1=O)NCCN1CCc2ccccc2C1 22.4 µM [inhibitor, single point]
Cc1cccc(NC(=O)Cc2csc(COc3cccc(C)c3)n2)c1 7.94 µM [inhibitor, partial curve]
O=C(NC(=S)Nc1cnc2ccccc2c1)c1ccccc1 28.2 µM [inhibitor, single point]
Cc1sc2nc(CSc3ccccc3)nc(N3CCOCC3)c2c1C 22.4 µM [inhibitor, single point]
COc1ccccc1CNC(=O)COc1ccc(Br)c(C)c1 12.6 µM [inhibitor, partial curve, poor fit]
CCCCCCCCCNC(=O)[C@H](NC(=O)COc1ccccc1)[C@@H]1NC(C(=O)OC)C(C)(C)S1 (stereo not given in full) 22.4 µM [inhibitor, single point]
COc1c2ccc(C(=O)NCc3cc(C(F)(F)F)cc(C(F)(F)F)c3)cc2nn1C 10 µM [inhibitor, partial curve, poor fit]
Cc1c(OCc2ccccc2)c(=O)ccn1Cc1ccc(F)cc1 7.94 µM [inhibitor, partial curve, poor fit]
O=C(Nc1ccc(OCc2ccccc2)cc1)Nc1ccccc1C(=O)NCCCN1CCOCC1 10 µM [inhibitor, partial curve, poor fit]
CCOc1ccc(NC(=O)Cn2nnc(-c3ccccc3NC(=O)CC)n2)cc1 1.41 µM [inhibitor, full curve, poor fit]
Cc1onc(-c2ccccc2Cl)c1C(=O)N1CCC(Cc2ccccc2)CC1 12.6 µM [inhibitor, partial curve, poor fit]
CC(C)(C)NC(=O)C(c1ccc(-c2ccccc2)cc1)n1c(=O)c(-c2ccccc2)nc2ccccc21 (stereo not given) 3.98 µM [inhibitor, partial curve, poor fit]
Cc1cc(C)c(S(=O)(=O)Oc2ccccc2[N+](=O)[O-])c(C)c1 7.94 µM [inhibitor, partial curve]

Potency, active:
CC1(C)CC(=O)CC2(C1)NCC(c1ccccc1)c1c2[nH]c2ccccc12 (stereo not given) 10 µM
CCCc1ccc2oc(C(=O)NCCN3CCCC(O)C3)c(C)c2c1 (stereo not given) 10 µM
